Assay results as given in paper PMC5663739.
These are yes or no findings as the source states them, for the method shown. In cells and extracts the contact can be indirect. Some entries that bind do so weakly or less than the wild type. Where a sequence is shown, tags or fusion partners need not be part of it.

Chains of the proteins cited; added tags and fusions are not shown.
UniProt Q9CQJ4: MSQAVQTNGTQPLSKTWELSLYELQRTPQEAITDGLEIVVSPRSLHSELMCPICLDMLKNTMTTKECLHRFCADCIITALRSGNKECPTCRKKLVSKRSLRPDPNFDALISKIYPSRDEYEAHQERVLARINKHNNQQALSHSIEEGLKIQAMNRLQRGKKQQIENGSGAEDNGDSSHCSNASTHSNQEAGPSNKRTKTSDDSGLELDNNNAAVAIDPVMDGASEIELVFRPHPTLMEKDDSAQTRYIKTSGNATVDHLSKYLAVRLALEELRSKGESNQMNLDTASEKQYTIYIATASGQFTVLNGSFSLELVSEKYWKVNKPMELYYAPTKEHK
UniProt A2AWL7: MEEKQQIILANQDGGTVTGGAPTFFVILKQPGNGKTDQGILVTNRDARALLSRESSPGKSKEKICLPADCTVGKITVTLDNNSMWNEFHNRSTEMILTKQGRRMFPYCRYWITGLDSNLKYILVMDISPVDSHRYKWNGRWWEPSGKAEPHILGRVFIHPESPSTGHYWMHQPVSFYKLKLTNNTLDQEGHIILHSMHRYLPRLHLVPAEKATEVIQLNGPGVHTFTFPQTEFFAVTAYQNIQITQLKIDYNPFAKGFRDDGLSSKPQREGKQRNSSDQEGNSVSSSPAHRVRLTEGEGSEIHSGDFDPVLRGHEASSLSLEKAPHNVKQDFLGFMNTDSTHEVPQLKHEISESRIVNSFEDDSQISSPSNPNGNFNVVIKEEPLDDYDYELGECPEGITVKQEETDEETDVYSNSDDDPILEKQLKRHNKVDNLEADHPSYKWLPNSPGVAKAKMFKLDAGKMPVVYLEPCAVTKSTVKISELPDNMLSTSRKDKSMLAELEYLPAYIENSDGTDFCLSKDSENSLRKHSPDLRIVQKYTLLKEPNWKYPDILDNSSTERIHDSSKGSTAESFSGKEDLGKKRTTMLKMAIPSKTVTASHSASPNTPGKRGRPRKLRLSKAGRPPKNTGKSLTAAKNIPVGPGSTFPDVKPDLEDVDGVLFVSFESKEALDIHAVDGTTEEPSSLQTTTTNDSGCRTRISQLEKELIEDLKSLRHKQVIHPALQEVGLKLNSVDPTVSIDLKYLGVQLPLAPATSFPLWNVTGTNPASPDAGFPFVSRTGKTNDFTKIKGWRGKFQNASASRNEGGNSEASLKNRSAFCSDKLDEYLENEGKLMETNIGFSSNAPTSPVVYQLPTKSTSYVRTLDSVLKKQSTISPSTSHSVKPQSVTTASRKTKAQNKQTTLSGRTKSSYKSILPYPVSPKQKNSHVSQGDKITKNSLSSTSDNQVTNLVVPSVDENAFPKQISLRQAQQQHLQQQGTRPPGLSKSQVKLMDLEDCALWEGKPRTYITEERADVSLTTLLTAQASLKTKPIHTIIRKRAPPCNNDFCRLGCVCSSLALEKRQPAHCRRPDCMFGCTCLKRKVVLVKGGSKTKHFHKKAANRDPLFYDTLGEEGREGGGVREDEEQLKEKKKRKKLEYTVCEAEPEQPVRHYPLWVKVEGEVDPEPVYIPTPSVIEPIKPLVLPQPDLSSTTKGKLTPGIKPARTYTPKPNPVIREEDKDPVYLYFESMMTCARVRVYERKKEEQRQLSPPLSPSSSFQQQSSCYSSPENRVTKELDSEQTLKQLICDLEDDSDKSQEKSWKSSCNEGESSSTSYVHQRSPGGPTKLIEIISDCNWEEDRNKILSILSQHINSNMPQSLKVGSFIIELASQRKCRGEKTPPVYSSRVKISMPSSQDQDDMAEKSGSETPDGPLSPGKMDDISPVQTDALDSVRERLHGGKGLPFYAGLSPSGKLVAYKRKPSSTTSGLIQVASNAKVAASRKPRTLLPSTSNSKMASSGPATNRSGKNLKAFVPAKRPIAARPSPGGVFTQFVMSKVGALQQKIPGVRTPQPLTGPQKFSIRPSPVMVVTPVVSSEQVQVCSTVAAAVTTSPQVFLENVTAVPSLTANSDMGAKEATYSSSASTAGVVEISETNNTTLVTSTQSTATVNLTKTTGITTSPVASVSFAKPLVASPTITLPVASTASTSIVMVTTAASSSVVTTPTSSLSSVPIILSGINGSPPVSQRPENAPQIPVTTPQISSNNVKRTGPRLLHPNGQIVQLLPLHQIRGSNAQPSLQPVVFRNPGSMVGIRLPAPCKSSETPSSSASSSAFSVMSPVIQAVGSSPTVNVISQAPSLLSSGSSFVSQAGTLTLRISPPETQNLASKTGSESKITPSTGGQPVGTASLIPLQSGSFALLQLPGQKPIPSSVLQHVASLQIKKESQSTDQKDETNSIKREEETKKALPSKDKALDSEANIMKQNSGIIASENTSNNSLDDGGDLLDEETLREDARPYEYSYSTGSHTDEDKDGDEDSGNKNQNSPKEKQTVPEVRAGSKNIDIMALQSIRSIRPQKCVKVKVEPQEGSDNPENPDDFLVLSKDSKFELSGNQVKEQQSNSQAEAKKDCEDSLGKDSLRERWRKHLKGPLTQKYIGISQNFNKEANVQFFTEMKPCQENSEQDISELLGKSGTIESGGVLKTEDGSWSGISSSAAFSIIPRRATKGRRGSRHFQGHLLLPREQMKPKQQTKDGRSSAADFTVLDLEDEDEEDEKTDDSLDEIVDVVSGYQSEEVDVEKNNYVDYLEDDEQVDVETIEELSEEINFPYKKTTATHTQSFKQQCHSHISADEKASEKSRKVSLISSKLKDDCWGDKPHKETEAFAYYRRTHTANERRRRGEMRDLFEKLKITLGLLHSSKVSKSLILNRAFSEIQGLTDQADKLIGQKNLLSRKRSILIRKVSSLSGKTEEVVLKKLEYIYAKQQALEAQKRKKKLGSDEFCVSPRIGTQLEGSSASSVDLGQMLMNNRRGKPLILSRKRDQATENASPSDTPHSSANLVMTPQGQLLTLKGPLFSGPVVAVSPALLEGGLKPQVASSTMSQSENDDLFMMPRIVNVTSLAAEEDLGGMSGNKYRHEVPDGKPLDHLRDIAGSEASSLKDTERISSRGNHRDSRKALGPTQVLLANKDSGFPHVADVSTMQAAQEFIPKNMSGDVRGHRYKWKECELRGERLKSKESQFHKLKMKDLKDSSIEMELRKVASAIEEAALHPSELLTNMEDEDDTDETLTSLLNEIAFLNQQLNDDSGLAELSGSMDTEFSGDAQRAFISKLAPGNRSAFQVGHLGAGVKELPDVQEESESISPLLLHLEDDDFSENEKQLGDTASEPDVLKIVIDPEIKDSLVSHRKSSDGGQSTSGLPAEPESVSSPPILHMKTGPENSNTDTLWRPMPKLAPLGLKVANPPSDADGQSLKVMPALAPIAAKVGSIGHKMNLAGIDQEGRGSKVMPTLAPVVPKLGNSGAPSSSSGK
UniProt P59178: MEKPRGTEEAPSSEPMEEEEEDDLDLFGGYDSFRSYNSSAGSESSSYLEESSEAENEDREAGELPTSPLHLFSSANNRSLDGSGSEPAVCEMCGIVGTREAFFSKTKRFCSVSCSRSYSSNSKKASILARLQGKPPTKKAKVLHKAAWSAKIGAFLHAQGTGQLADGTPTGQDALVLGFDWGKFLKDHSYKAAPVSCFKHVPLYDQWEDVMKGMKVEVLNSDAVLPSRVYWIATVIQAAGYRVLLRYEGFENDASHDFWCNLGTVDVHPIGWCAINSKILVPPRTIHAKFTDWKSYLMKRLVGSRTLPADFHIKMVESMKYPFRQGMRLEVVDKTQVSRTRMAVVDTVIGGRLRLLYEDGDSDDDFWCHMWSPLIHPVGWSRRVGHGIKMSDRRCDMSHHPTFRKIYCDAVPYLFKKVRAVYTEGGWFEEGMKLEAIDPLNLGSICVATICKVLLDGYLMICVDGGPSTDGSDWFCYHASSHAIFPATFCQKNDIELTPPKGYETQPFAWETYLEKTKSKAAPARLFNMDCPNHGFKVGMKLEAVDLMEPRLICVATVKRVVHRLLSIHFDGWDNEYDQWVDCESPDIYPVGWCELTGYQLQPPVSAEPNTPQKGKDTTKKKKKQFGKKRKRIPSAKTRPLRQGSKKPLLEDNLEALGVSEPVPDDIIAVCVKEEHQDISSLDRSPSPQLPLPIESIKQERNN
UniProt Q8VDS3: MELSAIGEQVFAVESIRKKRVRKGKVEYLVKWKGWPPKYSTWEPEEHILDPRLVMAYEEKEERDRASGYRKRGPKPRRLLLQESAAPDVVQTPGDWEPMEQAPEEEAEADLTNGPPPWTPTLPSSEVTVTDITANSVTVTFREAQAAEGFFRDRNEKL

T1: CBX6-3×FLAG (mouse) (UniProt Q9DBY5)
T1 sequence: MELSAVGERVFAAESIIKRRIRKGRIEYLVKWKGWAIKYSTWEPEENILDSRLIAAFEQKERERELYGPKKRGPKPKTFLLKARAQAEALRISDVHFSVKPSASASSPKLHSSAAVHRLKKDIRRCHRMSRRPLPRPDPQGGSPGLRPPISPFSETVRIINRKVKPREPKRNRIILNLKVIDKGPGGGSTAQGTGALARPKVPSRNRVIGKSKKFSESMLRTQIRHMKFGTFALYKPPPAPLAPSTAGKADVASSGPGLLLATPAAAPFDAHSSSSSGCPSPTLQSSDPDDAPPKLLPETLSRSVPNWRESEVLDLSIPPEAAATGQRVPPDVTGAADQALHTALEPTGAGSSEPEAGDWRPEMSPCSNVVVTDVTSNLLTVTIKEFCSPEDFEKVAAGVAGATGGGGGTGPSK


The molecules below were run against RING1B (mouse (endogenous in ESCs)) (UniProt Q9CQJ4) (assay: co-IP; reverse IP with a RING1B-specific antibody from total extracts of CBX6-3×FLAG-expressing ESCs; protein A or G sepharose beads, 4 °C; Western blot).

Row | Molecule | binding
1 | CBX6-3×FLAG (protein, UniProt Q9DBY5 1-414) MELSAVGERVFAAESIIKRRIRKGRIEYLVKWKGWAIKYSTWEPEENILDSRLIAAFEQKERERELYGPKKRGPKPKTFLLKARAQAEALRISDVHFSVKPSASASSPKLHSSAAVHRLKKDIRRCHRMSRRPLPRPDPQGGSPGLRPPISPFSETVRIINRKVKPREPKRNRIILNLKVIDKGPGGGSTAQGTGALARPKVPSRNRVIGKSKKFSESMLRTQIRHMKFGTFALYKPPPAPLAPSTAGKADVASSGPGLLLATPAAAPFDAHSSSSSGCPSPTLQSSDPDDAPPKLLPETLSRSVPNWRESEVLDLSIPPEAAATGQRVPPDVTGAADQALHTALEPTGAGSSEPEAGDWRPEMSPCSNVVVTDVTSNLLTVTIKEFCSPEDFEKVAAGVAGATGGGGGTGPSK | binds

Each molecule was assayed against T1, CBX6-3×FLAG (mouse) (assay: co-IP; FLAG M2 beads on total extracts of ESCs expressing CBX6-3×FLAG; IP300 buffer (50 mM Tris-HCl pH 7.6, 300 mM NaCl, 10% glycerol, 0.2% NP-40), 4 °C; Western blot with specific antibodies).

Row | Molecule | binding
2 | MGA (from UniProt A2AWL7 1-3003) | binds
3 | L3MBTL2 (from UniProt P59178 1-703) | binds
4 | CBX7 (from UniProt Q8VDS3 1-158) | no binding
5 | RING1B (from UniProt Q9CQJ4 1-336) | binds
6 | PCGF6 (protein, UniProt Q99NA9 1-353) MDEAETDATENKRASEAKRASAMPPPPPPPPPISPPALIPAPAAGEEGPASLGQAGAAGCSRSRPPALEPERSLGRLRGRFEDYDEELEEEEEMEEEEEEEEEMSHFSLRLESGRADSEDEEERLINLVELTPYILCSICKGYLIDATTITECLHTFCKSCIVRHFYYSNRCPKCNIVVHQTQPLYNIRLDRQLQDIVYKLVINLEEREKKQMHDFYKERGLEVPKPAAPQPVPSSKGKTKKVLESVFRIPPELDMSLLLEFIGANEDTGHFKPLEKKFVRVSGEATIGHVEKFLRRKMGLDPACQVDIICGDHLLERYQTLREIRRAIGDTAMQDGLLVLHYGLVVSPLKIT | binds
7 | PCGF2/MEL18 (protein, UniProt P23798 1-342) MHRTTRIKITELNPHLMCALCGGYFIDATTIVECLHSFCKTCIVRYLETNKYCPMCDVQVHKTRPLLSIRSDKTLQDIVYKLVPGLFKDEMKRRRDFYAAYPLTEVPNGSNEDRGEVLEQEKGALGDDEIVSLSIEFYEGVRDREEKKNLTENGDGDKEKTGVRFLRCPAAMTVMHLAKFLRNKMDVPSKYKVEILYEDEPLKEYYTLMDIAYIYPWRRNGPLPLKYRVQPACKRLTLPTVPTPSEGTNTSGASECESVSDKAPSPATLPATSSSLPSPATPSHGSPSSHGPPATHPTSPTPPSTAAGTTTATNGGTSNCLQTPSSTSRGRKMTVNGAPCPP | binds
8 | PHC1 (protein, UniProt Q64028 1-1010) METESEQNSSSTNGSSSSGASSRPQIAQMSLYERQAVQALQALQRQPNAAQYFHQFMLQQQLSNAQLHSLAAVQQATIAASRQASSPNSSTAQQQTATTQASMNLATTSAAQLISRSQSVSSPSATTLTQSVLLGNTTSPPLNQSQAQMYLRPQLGNLLQVNRTLGRNVPLASQLILMPNGAVAAVQQEVPPAQSPGVHADADQVQNLAVRNQQASAQGPQMPGSTQKAIPPGASPVSGLSQTSSQALAVAQASSGASGQSLNLSQAGGGSGNSLPGSMGPGGGGQAPGGLGQLPSSGLTGGSCPRKGTGVVQPLPAAQTVTVSQGSQTEAESAAAKKAEADGSGQQSVGMNLTRTATPAPSQTLISSATYTQIQPHSLIQQQQQIHLQQKQVVIQQQIAIHHQQQFQHRQSQLLHTATHLQLAQQQQQQQQQQQQQQQQQQQQQQGTTLTAPQPPQVPPTQQVPPSQSQQQAQTLVVQPMLQSSPLTLPPEPTSKPPIPIQSKPPVAPIKPPQLGAAKMSATQQPPPHIPVQVVGTRQPGSAQAQALGLAQLAAAVPTPRGITGAVQPGQAHLASSPPSSQAAPGALQECPPALAAGMTLAPVQGTAHVVKGGPTASSPVVAQVPAAFYMQSVHLPGKAQTLAVKRKAESEEERDDLSALASVLPTKASPAAESPKVIEEKNSLGEKAEPVASLNANPPNSDLVALAPTPSAPPPTLALVSRQMGDSKPPQAIVKPQILTHIIEGFVIQEGAEPFPVGCSQFLKETKKPLQAGLPTGLNESQPSGPLGGDSPSVELEKKANLLKCEYCGKYAPAEQFRGSKRFCSMTCAKRYNVSCSHQFRLKRKKMKEFQEASYARVRRRGPRRSSSDIARAKIQGKRHRGQEDSSRGSDNSSYDEALSPTSPGPLSVRAGHGERDLGNTITTPSTPELQGINPVFLSSNPSQWSVEEVYEFIASLQGCQEIAEEFRSQEIDGQALLLLKEEHLMSAMNIKLGPALKICAKINVLKET | binds
9 | RYBP (protein, UniProt Q8CCI5 1-228) MTMGDKKSPTRPKRQAKPAADEGFWDCSVCTFRNSAEAFKCSICDVRKGTSTRKPRINSQLVAQQVAQQYATPPPPKKEKKEKVEKPDKEKPEKDKDISPSVTKKNTNKKTKPKSDILKDPPSEANSIQSANATTKTSETNHTSRPRLKNVDRSTAQQLAVTVGNVTVIITDFKEKTRSSSTSSSTVTSSAGSEQQNQSSSGSESTDKGSSRSSTPKGDMSAVNDESF | no binding
